Source: ChEMBL document CHEMBL4888484, “Replenishing the malaria drug discovery pipeline: Screening and hit evaluation of the MMV Hit Generation Library 1 (HGL1) against asexual blood stage Plasmodium falciparum ,using a nano luciferase reporter read-out” (2022)
Hit rate of the full screen: of about 150,000 compounds, about 540 (0.36%) showed an effect of 50% or more. The list shows a part of the results.

What follows are compounds tested on Plasmodium falciparum (assay: Primary screen in NF54 nanoGlo assay, in single point, at 2uM, 72h; a lower Z score goes with more inhibition). Settings: timepoint 72 hour.
Assay type: functional, Erythrocyte

Compound | % Inhibition [%] | Z score
COc1ccc(CNC(C)(C)CO)cc1Cl | -19 | 1.7
CC(C)CC(=O)N1CCCn2nc(-c3ccc(C(F)(F)F)cc3)cc2C1 | -17 | 1.87
CC(C)(C)n1cnc(-c2nc([C@@H]3CCCCO3)no2)n1 | -25 | 3.13
Cc1nn(C)c(OC[C@H]2CCCCO2)c1C(=O)NCc1noc2c1CCCC2 | -6 | 0.48
CCn1c(CNc2ccc(Br)cc2)nc2cc(S(=O)(=O)N3CCCCC3)ccc21 | -7 | 1.31
O=C1CC2(CCN(c3nc(-c4ccccc4)cs3)CC2)CN1 | -5 | 0.63
C=CCC[C@@H](CN1CCCOCC1)Oc1nccc(C)n1 | -15 | 2.49
Nc1ncnc2cc(C(=O)N3CC4(CC4)C3)ccc12 | -8 | 1.56
CC1CCCCC1C(=O)Nc1[nH]nnc1C(=O)NC1CC1 (stereo not given) | -6 | 0.87
CN1CCc2[nH]nc(C(=O)NC[C@H]3CCc4ccccc4O3)c2C1 | -2 | 0.32
CCOc1ccc(CNCCC(=O)O)cc1Cl | -2 | 0.27
COC[C@H](NC(=O)C1CCCC1)C(N)=O | -2 | 0.35
Cc1cc(C)c(C(=O)NS(=O)(=O)c2c(C)nn(C)c2C)o1 | 6 | -0.88
CCCCN1CCN(C(=O)c2ccc3c(c2)nc2n3CCN(Cc3ccccc3)C2=O)CC1 | -9 | 1.15
CC(C)CN1CCC(NC(=O)N2CCC[C@H](C)C2)CC1 | -6 | 0.76
Cc1ccccc1OC1CN(C(=O)C(C)(C)N2CCOCC2)C1 | -5 | 0.47
CC1C(C(F)(F)F)OCCN1c1nnc(-c2ccon2)s1 (stereo not given) | -12 | 1.47
CC(=O)c1cccc(NS(=O)(=O)c2ccc(S(=O)(=O)N3CCCCC3)cc2)c1O | -7 | 0.68
CC1CCN(S(=O)(=O)N2CCN(Cc3ccco3)CC2)CC1 | -3 | 0.46
CC1CN(CCC2CCCCO2)S(=O)(=O)C1 (stereo not given) | -9 | 1.67
COc1cc(NC2CCN(C(=O)NCc3cncn3C)CC2)cc(OC)c1 | -2 | 0.42
CCC(CC)CS(=O)(=O)N1CCC[C@H](CNS(N)(=O)=O)C1 | -10 | 1.74

Compound | % Inhibition [%] | Z score
CCOC(=O)c1ccc(N2CCC(C)(C)S(=O)(=O)CC2)nc1 | 0 | -0.06
Cc1noc2ncc(C(=O)N3C[C@H](C)OC(C)(C)C3)cc12 | 36 | -1.2
O=C(NCc1nc2c(s1)COCC2)N[C@H]1CC12CCCCC2 | -3 | 0.54
CN(C)Cc1cccc(-c2nc([C@H]3CCOC3)no2)c1 | -14 | 2.03
COc1cc(C(=O)N2CCOCC2C2CCCC2=O)ccc1F (stereo not given) | -1 | 0.19
CC(C)Oc1ccc([C@H]2CC(=O)Nc3nc(N4CCOCC4)sc32)cc1 | -13 | 1.71
Cc1cccc(O[C@H]2CCN(C(=O)Cn3ncccc3=O)C2)n1 | -8 | 1.54
Cn1ncc(Cl)c(Oc2ccc(C(C)(C)C)cc2)c1=O | -1 | 0.18
CC(C)N1CCN(C(=O)c2nnc(N3CCCCC3)c3ccccc23)CC1 | 2 | -0.19
CCc1nnc(-c2c(C)c(S(=O)(=O)Nc3ccc(OC)cc3C)c(C)n2C)o1 | 4 | -0.55
O=C(Nc1cc(-c2ccccc2)ns1)[C@H]1CCn2cncc2C1 | -13 | 1.33
O=C1CCC[C@H](CC(=O)N(CCC(F)(F)F)c2ccccc2)N1 | -3 | 0.61
O=c1c2cc(-c3ccc4c(c3)OCO4)nn2ccn1Cc1ccc2c(c1)OCO2 | 6 | -0.93
COC[C@@H]1C[C@H](OC)CN1c1ncc(F)cn1 | -8 | 0.94
CC(c1ccc(S(C)(=O)=O)cc1)N1CCN(C)C(c2nccn2C)C1 (stereo not given) | -15 | 2.27
O=S(=O)(c1ccc(-c2ccno2)o1)N1CCN(c2ccccc2)CC1 | 10 | -1.82
CC(C)(C)C(=O)N[C@@]1(C(F)(F)F)NC(=O)N(Cc2ccccc2Cl)C1=O | -1 | 0.17
Cc1ccc(Cn2cc([C@@H](CCc3ccccc3)CC(=O)NCCN3CCCC3)c3ccccc32)cc1 | -10 | 1.33
CCN(Cc1noc(C2CCC2)n1)C(=O)NC1CCN(C(=O)C(C)C)CC1 | -12 | 1.71
O=C(Nc1ccccn1)c1c(-c2ccccc2)c(-c2ccccc2)n[nH]c1=O | 3 | -0.49
CCC(CC)NC(=O)CCC1CCCCC1 | -2 | 0.3
CS(=O)(=O)N(CCN1CCOCC1)[C@H]1CCN(C(=O)NCCc2ccccc2)C1 | -2 | 0.28

Compound | % Inhibition [%] | Z score
CCO[C@@H](C)c1nc(CN(CC)c2cccc(CO)c2)cs1 | -17 | 1.47
Cc1nonc1CC(=O)N1CC[C@](C)(O)[C@@H](O)C1 | -12 | 1.17
Cc1cnc(NC[C@H]2CCCS2(=O)=O)nc1 | -3 | 0.4
O=C1C[C@H]2CC[C@@H](CN1)N2C(=O)CCc1c[nH]c2ccccc12 | 2 | -0.19
Cc1ccn(CCCN2C(=O)c3ccccc3C2=O)c(=O)c1C#N | 25 | -3.41
Cc1cc(OC2CCN(C(=O)c3cccc(N(C)C)c3)CC2)cc(=O)n1C | -2 | 0.32
CCn1cc(S(=O)(=O)N2CCC3(CCC(=O)N3Cc3ccc(F)cc3)CC2)cn1 | 6 | -0.85
O=C(c1nccc2ccccc12)N1CC[C@H](OCc2ccccc2)C1 | -2 | 0.35
Cc1ncc(-c2ccc(S(=O)(=O)NC3CCCCC3)s2)o1 | -5 | 0.54
CCOC(=O)C1CCC(CN(Cc2ccc(OC)cc2)S(=O)(=O)c2ccc(F)c(C(=O)Nc3cc(Cl)ccc3OC)c2)CC1 (stereo not given) | -5 | 0.64
COCCNC(=O)c1ccc(Cl)c(N)c1 | -4 | 0.77
O=C(N[C@H]1CC[C@H](n2cnnc2)CC1)c1ccc(-c2ccccc2)[nH]1 | -11 | 1.39
CS(=O)(=O)[C@H]1CCCCN(C(=O)c2cc(C#N)ccn2)C1 | -7 | 1.05
O=c1[nH]ncn1C1CCN(Cc2csc3ccccc23)CC1 | -8 | 1.38
O=S(=O)(c1ccccc1F)N1CCN(c2ccc(C3CC3)nn2)CC1 | 12 | -1.57
COc1ccc(Cl)cc1NC(=O)N1CCc2c(c(=O)c3cc(C)cc(C)c3n2C)C1 | -3 | 0.41
Cc1c[nH]c(C(=O)N(C)[C@@H](C)Cc2cnccn2)n1 | -10 | 1.85
O=C(NC[C@H]1[C@H](c2ccccc2)C1(F)F)c1coc(C2CCC2)n1 | -1 | 0.21
Cc1cccc(CN(C(=O)C(=O)N2CCCC2)C(C)C)c1 | -2 | 0.41
c1cc2c(cc1OCc1csc([C@@H]3CCCO3)n1)CCC2 | -8 | 1.46
CN(Cc1ccccc1)C(=O)C[C@@H]1CCNC[C@@H]1Cc1cc(-c2ccccc2)on1 | 31 | -3.51
CN1CCOC(C(=O)N2CCC(OCCCc3ccccc3)C2)C1 (stereo not given) | -6 | 0.63

Compound | % Inhibition [%] | Z score
O=C(Cn1cccnc1=O)N[C@H]1CCc2ccccc21 | -16 | 3.1
CC(C)c1cccc(/N=C(\NCc2ccncc2)NC(=O)c2ccccc2)c1 | -10 | 1.76
Cc1ccccc1N1CCN(C(=O)[C@H]2CC(=O)N(c3cnn(C)c3)C2)CC1 | -2 | 0.2
CCOC1(C)CCN(C[C@H](O)c2ccc(C(F)(F)F)cc2)CC1 | 20 | -3.55
COC(=O)c1c(NCC(O)COCC2CC2)ncnc1NCC(O)COCC1CC1 (stereo not given) | -4 | 0.42
O=C(Nc1cc(Br)cnc1OCC(F)(F)F)c1ccc2c(c1)OCCO2 | -4 | 0.69
O=C(NCc1ccc(F)cc1)N(Cc1cccs1)C1CCOCC1 | -1 | 0.12
CCC(c1cccs1)N1C(=O)[C@H]2CN(S(=O)(=O)c3ccc(C)cc3C)C[C@H]2C1=O (stereo not given in full) | -3 | 0.34
c1cc(-c2noc(C3CC3C3CC3)n2)ns1 (stereo not given) | -10 | 1.45
CCc1noc(C(C)NC2CCN(C(C)=O)CC2CC)n1 (stereo not given) | -3 | 0.44
CN1C(=O)CCC12CCN(Cc1cnc(-c3cccc4ccccc34)nc1)CC2 | -12 | 1.18
CCc1nc2cc(-c3noc(Cc4ccc(Cl)cc4)n3)ccc2o1 | 49 | -4.76
CC(C)(CCO)CNCc1ccc(F)cn1 | -18 | 2.41
CC(C)Cc1c[nH]c(C(=O)NC[C@H]2CCCCS2(=O)=O)c1 | -12 | 2.13
O=C(c1csc(S(=O)(=O)NCc2ccc3c(c2)OCO3)c1)N1CCCCC1 | -6 | 0.81
COc1ccc(C(=O)Nc2cc(-c3ccco3)no2)cc1OC | -1 | 0.12
COC(=O)C1CCC(N[C@H](c2nnc3ccccn23)C(C)C)CC1 (stereo not given in full) | -2 | 0.28
Cc1cc2ncc(NS(=O)(=O)c3ccc4c(c3)CCCC4)cn2n1 | -25 | 3.16
CC1CN(S(=O)(=O)C(C)C)CCC1NCC=Cc1ccccc1 (stereo not given) | -3 | 0.61
